# ± gives the standard deviation of the averaged measurements. Whole data set: some 33,000 sequences, median “E-score (dimensionless, -0.5 to 0.5)” near -0.046, cut for the highest 2% near 0.36. The list shows a part of the results.
# Test system: T1, SpTbr T-box DNA-binding domain (GST fusion)
# T1 sequence: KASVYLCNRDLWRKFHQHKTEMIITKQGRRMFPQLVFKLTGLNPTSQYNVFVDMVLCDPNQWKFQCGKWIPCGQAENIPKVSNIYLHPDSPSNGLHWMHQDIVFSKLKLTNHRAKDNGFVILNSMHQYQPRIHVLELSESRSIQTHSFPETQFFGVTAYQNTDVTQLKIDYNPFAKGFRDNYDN
# Assay: PBM E-score of 8-mer (E-score (dimensionless, -0.5 to 0.5)); Tbr is Tbrain of the sea star Patiria miniata (Pm) or the sea urchin Strongylocentrotus purpuratus (Sp); higher = stronger binding preference; most listed sequences are background and not binding sites
# Details: the construct has about 5 more residues each side
# In short: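 Each ungapped 8-mer received an enrichment E-score from the Universal PBM Analysis Suite, averaged over duplicate arrays. The proteins were Tbr T-box DNA-binding domains, covering the whole T-box plus about five flanking residues, fused to GST and expressed in BL21 E. coli at 20 °C before glutathione affinity purification. Universal Agilent oligonucleotide arrays were made double-stranded by primer extension and incubated with 200 nM protein in PBS (pH 7.5). The arrays were then scanned and quantified, and every 8-mer was scored from probe intensities.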
row,Sequence,PBM E-score of 8-mer
1,ATCGGGGA,-0.27 ± 0.037
2,AGCGGATA,-0.0726 ± 0.019
3,CGGCTCTC,-0.0922 ± 0.065
4,CTAACAAG,0.168 ± 0.051
5,ACGTTCCT,-0.0781 ± 0.049
6,GGAATACA,-0.232 ± 0.053
7,ACCAAGAG,0.0246 ± 0.0012
8,ACGACCAC,-0.055 ± 0.024
9,AGAGGCGC,0.179 ± 0.044
10,GGCTAGAA,-0.0594 ± 0.0051
11,ACGCCCCT,0.227 ± 0.029
12,AGAGTGAA,0.136 ± 0.019
13,ACGGTAGC,0.0609 ± 0.11
14,CTCGCTTC,0.144 ± 0.0036
15,ACATATGG,0.184 ± 0.06
16,GGCGCAGA,0.0595 ± 0.023
17,CTACAACC,-0.103 ± 0.034
18,AACGTCGA,-0.183 ± 0.11
19,CAAACGTG,0.279 ± 0.018
20,TAGCATAA,-0.151 ± 0.0099
21,CACAATAG,0.0976 ± 0.074
22,GGCCGGAA,-0.212 ± 0.025
23,AAGACGGG,-0.179 ± 0.038
24,GACCGTAA,-0.00484 ± 0.024
25,AGACGGAC,-0.231 ± 0.093

row,Sequence,PBM E-score of 8-mer
1,CAGCTCTC,0.00347 ± 0.047
2,CAGCAGTA,-0.0514 ± 0.03
3,GCATTACC,-0.103 ± 0.064
4,TAGGACTA,-0.305 ± 0.011
5,AAATCTTG,-0.223 ± 0.024
6,ATCCCCCA,-0.134 ± 0.012
7,GCCTAAGC,-0.159 ± 0.006
8,ACTGGAAG,-0.163 ± 0.009
9,GAACGCCC,0.138 ± 0.0086
10,AATTTGGC,0.035 ± 0.077
11,ACGAGCGC,-0.112 ± 0.037
12,AATTACGT,-0.0995 ± 0.054
13,ATGTGATA,0.254 ± 0.024
14,ATTCGCCG,-0.0403 ± 0.033
15,CGCGTAAG,0.238 ± 0.041
16,CGACACCA,0.387 ± 0.014
17,CAGCGCCA,0.0938 ± 0.059
18,CAATTATC,0.13 ± 0.057
19,GTAGCGAA,0.0193 ± 0.057
20,AGGGTTTA,-0.111 ± 0.019
21,TCTTTAAA,-0.159 ± 0.034
22,ATTGAGGG,-0.243 ± 0.003
23,CCGCTCCC,-0.0507 ± 0.026
24,AGACTCAC,0.0502 ± 0.0099
25,ATAAGTAT,-0.165 ± 0.04

row,Sequence,PBM E-score of 8-mer
1,CTTCGTTA,-0.0171 ± 0.094
2,CAGGTTAG,-0.0345 ± 0.013
3,ATATCTAG,-0.28 ± 0.02
4,CGGCCGCC,0.0556 ± 0.025
5,AATTGTGC,0.141 ± 0.035
6,CCTATCGA,0.042 ± 0.12
7,CTCCCACC,0.292 ± 0.039
8,CGTCAGGC,0.0421 ± 0.067
9,GAGGCCGA,-0.168 ± 0.14
10,GCGTACGA,-0.165 ± 0.032
11,TAATAGGA,-0.167 ± 0.025
12,ACTTTATG,0.00571 ± 0.017
13,CGTCTAGA,-0.287 ± 0.12
14,GATGCCAA,-0.181 ± 0.059
15,CGTGCTCA,-0.0222 ± 0.013
16,CCACGACG,0.108 ± 0.064
17,CGCACTCA,0.195 ± 0.014
18,CGATAGAG,-0.111 ± 0.042
19,ATTCCAAA,-0.167 ± 0.069
20,TGACCACA,0.195 ± 0.012
21,GGCCGGCA,-0.111 ± 0.038
22,AAACATAG,-0.0819 ± 0.082
23,ACTTCTAG,0.138 ± 0.013
24,AAGTGCGG,0.273 ± 0.027
25,CCATTGTC,-0.0217 ± 0.066

row,Sequence,PBM E-score of 8-mer
1,ATTGGGGG,-0.00984 ± 0.018
2,AGCCGTAG,-0.247 ± 0.058
3,GCCAGTAA,0.187 ± 0.052
4,ACATGTTC,0.0658 ± 0.071
5,ACAATAGA,-0.149 ± 0.042
6,CAGATCCG,0.0392 ± 0.049
7,AAATAGCC,-0.115 ± 0.041
8,CACAACTG,0.233 ± 0.042
9,GGCAGCAC,0.143 ± 0.045
10,CTTGGAAC,-0.26 ± 0.046
11,GGTCCGGA,-0.139 ± 0.0059
12,CGATGTTC,0.136 ± 0.014
13,CTATACAA,-0.252 ± 0.033
14,TAATAATA,-0.117 ± 0.039
15,ATTGGTGC,0.211 ± 0.006
16,GCGGCGCA,-0.0551 ± 0.041
17,GAACAAGA,-0.0736 ± 0.057
18,GTTCTGAA,-0.276 ± 0.049
19,CGGAGCGC,0.0693 ± 0.058
20,TAGGCTCA,0.00589 ± 0.017
21,CAGCACCA,0.0555 ± 0.055
22,CGGTCTAA,-0.0857 ± 0.068
23,CGGGCGTA,0.0447 ± 0.035
24,TCTTGACA,0.315 ± 0.0035
25,ACTAAGTG,0.194 ± 0.0028

row,Sequence,PBM E-score of 8-mer
1,GAGGAGCA,-0.273 ± 0.1
2,ATCGTTTC,0.0957 ± 0.035
3,GCAAAGCC,-0.0351 ± 0.015
4,AAAACTAG,-0.202 ± 0.034
5,CCAGAACA,-0.102 ± 0.0084
6,CATTATCC,-0.11 ± 0.049
7,CACGGTAC,0.0169 ± 0.071
8,GCGTTCTA,0.014 ± 0.0024
9,AAAGATGG,-0.143 ± 0.012
10,GAAGTATA,0.0119 ± 0.039
11,GAGCATGA,0.047 ± 0.036
12,CCTGCACC,0.0879 ± 0.015
13,CAATCTGA,-0.278 ± 0.032
14,CAGCTCAC,0.178 ± 0.037
15,CTTTGTCC,0.16 ± 0.013
16,ACCAACAG,0.118 ± 0.031
17,ACCCCGCC,0.0747 ± 0.091
18,CCCGCCCA,0.115 ± 0.013
19,AACCTGGT,0.017 ± 0.096
20,ACTAGCCT,-0.0352 ± 0.018
21,ACCAGGAA,-0.142 ± 0.016
22,ACACCCCT,0.385 ± 0.013
23,AGTGGCGC,0.221 ± 0.03
24,GCGTACCA,-0.126 ± 0.077
25,GGCAGACC,-0.257 ± 0.013

row,Sequence,PBM E-score of 8-mer
1,AGGGTGTG,0.449 ± 0.011
2,GAGTCGGC,-0.178 ± 0.0069
3,CGTCAGAA,-0.00445 ± 0.048
4,CTCTTTCA,0.0408 ± 0.03
5,ACCTTCGT,0.197 ± 0.058
6,AATCCGCC,-0.0867 ± 0.025
7,AAATGCTT,0.0037 ± 0.014
8,CCGATCGG,0.0608 ± 0.026
9,CTCCATGC,-0.000665 ± 0.013
10,ACGTTAGT,-0.0971 ± 0.061
11,CCCCTTCA,-0.158 ± 0.014
12,TCAGCACA,0.146 ± 0.028
13,ACGGATGA,-0.085 ± 0.053
14,ATCCAGAT,-0.102 ± 0.095
15,GTTCGGAA,-0.00327 ± 0.097
16,GGCTAGGA,-0.184 ± 0.023
17,ACTGACTC,0.0022 ± 0.0015
18,GATCCATA,-0.32 ± 0.047
19,ACCCGGTA,-0.0146 ± 0.021
20,TGCTTGAA,-0.225 ± 0.023
21,GAACGCCA,0.0516 ± 0.06
22,GAGGTTCC,-0.169 ± 0.026
23,CCTCTTGC,-0.0125 ± 0.083
24,CTGAGGTC,-0.0755 ± 0.025
25,CAAGTGAC,0.339 ± 0.0078

row,Sequence,PBM E-score of 8-mer
1,CTGGGTTA,-0.0751 ± 0.016
2,CATAGAGC,-0.0488 ± 0.023
3,AATGCACC,-0.0734 ± 0.002
4,CTGGAAGC,-0.197 ± 0.0071
5,AAAGCTAT,-0.153 ± 0.043
6,AATTAACC,-0.178 ± 0.044
7,ATAAGAAT,0.0614 ± 0.076
8,ATACGACA,0.218 ± 0.056
9,ACATTACA,0.0137 ± 0.033
10,ACCAGTAA,-0.19 ± 0.069
11,AAAGGCCA,-0.115 ± 0.014
12,AGCAACGC,0.221 ± 0.02
13,GATGACAA,0.278 ± 0.026
14,AGGCGCTC,-0.0197 ± 0.084
15,GGCCTCAC,0.207 ± 0.0034
16,AAACTGTG,0.277 ± 0.029
17,ATCTGCTG,-0.0885 ± 0.046
18,ATATGCGA,0.0823 ± 0.085
19,GCGAACAC,0.318 ± 0.0091
20,CCTTGCAG,-0.147 ± 0.017
21,TAACTCAA,-0.2219 ± 0.00093
22,CTCCCCCA,-0.0779 ± 0.022
